# Source: PubChem BioAssay AID686979 (National Center for Advancing Translational Sciences (NCATS), 2013)
# Among all 420,000 compounds or so, about 50,000 (12%) were called active. The inconclusive results got no clear call from the source; some entries with a clear call stand among them for comparison. Calls follow the shape of the dose curve; as a rule, active = well fitted inhibition curve with a large enough effect; inconclusive = small, poorly fitted or top-dose-only effect; inactive = flat fitted curve, though single readings scatter. No potency is given beside an inconclusive call; the fits are too rough.
# Assay: qHTS for Inhibitors of human tyrosyl-DNA phosphodiesterase 1 (TDP1): qHTS in cells in presence of CPT; also: nearly all actives have a fitted effect of over 55% in size
# Settings: chicken DT40 Tdp1-/-;hTDP1 cells + 20 nM CPT, ATP luminescence, 48 h; activity change, negative = growth inhibition: at 46.2 µM (top of the series)
# In short: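 Cell growth measured by CellTiter-Glo luminescence after a minimum 48 h, 37 C compound exposure with 20 nM CPT in Tdp1-knockout DT40 cells stably expressing hTDP1, seeded 400/well; qHTS titration format.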
# % is scaled to controls: 0 for no effect and ±100 for the full control effect; potency is read from the fitted curve at half-maximal effect; tags tell the direction and shape of the fitted curve.
Compound,Potency,"activity change, negative = growth inhibition"
COc1cccc(-c2nnc(NC(=O)c3ccccc3Br)o2)c1,"inconclusive [inhibitor, partial curve, poor fit]",–
Fc1ccc(NC(=S)NC2CCN(Cc3ccccc3)CC2)cc1,"inconclusive [inhibitor, single point]",–
COc1ccc(Cc2[nH]n3c(=O)cc(C)nc3c2-c2ccccc2)cc1,"inconclusive [inhibitor, single point]",–
COc1cccc(/C=N/NC(=O)c2ccoc2C)c1O,active: 3.26 µM,–
COc1ccc(C)cc1NC(=O)CN(C)S(=O)(=O)c1ccc2c(c1)CCCN2C(C)=O,"inconclusive [inhibitor, single point]",–
Cc1cc(-c2ccnc(-n3ncc(C(=O)NCc4cccnc4)c3C3CC3)n2)c(C)s1,–,inactive: -12% [at 9.04 µM]
Cc1cc(/C=N/n2cnnc2)c(C)n1-c1cccc(C(=O)O)c1,inactive,–
CCOc1ccc(C(O)Cn2c(=N)n(CCN3CCCCC3)c3ccccc32)cc1 (configuration not stated),active: 20.6 µM,–
O=C(NNC(=O)c1cccnc1SCc1cccc([N+](=O)[O-])c1)c1ccccn1,active: 4.61 µM,–
Cc1ccc2nc(C)c3c(c2c1)N(c1ccc(F)cc1)CC3,active: 10.3 µM,–
COc1ccc(C)cc1NC(=O)CN1C(=O)CSc2ccc(S(=O)(=O)N3CCCC3)cc21,"inconclusive [inhibitor, single point]",–
CC1=C(c2cccc(Cl)c2)S(=O)(=O)NC1=NCc1ccccc1C,"inconclusive [inhibitor, single point]",–
CN(C)c1ccc(/C=C/c2ccnc3c2ccc2ccccc23)cc1,"inconclusive [inhibitor, single point]",–
COc1ccc(CC(=O)NCc2ccc(Cl)cc2)cc1S(=O)(=O)N1CCOCC1,inactive,–
CC(C)NC(=O)Nc1cccc2c1O[C@H](CN(C)S(C)(=O)=O)[C@@H](C)CN([C@H](C)CO)C2=O,inactive,–
CC(C)(C)c1ccc(OCc2cnc(Cl)s2)cc1,inactive,–
CC1(C(=O)NS(=O)(=O)C2CC2)CCCN(C(=O)COCc2ccccc2)C1 (configuration not stated),active: 6.51 µM,–
COc1ccc(N2Cc3cccc(C(=O)Nc4ccc(C)cc4)c3C2=O)cc1,"inconclusive [inhibitor, single point]",–
Cc1ccc(O)c(N=CC2=C(O)c3ccccc3C2=O)c1,"inconclusive [inhibitor, single point]",–
COCCN(CCOC)Cc1cc(=O)oc2ccc3ccccc3c12,"inconclusive [inhibitor, single point]",–
COc1ccc(OC)c(NC(=O)CCN2C(=O)c3cccc([N+](=O)[O-])c3C2=O)c1,inactive,–
Cn1c2c(c(=O)n(C)c1=O)C(C(F)(F)F)(C(F)(F)F)N=C(C1CCCCC1)N2,active: 18.4 µM,–
O=S(=O)(c1ccc2c(c1)OCCO2)N1CCC(n2nnc3cc(C(F)(F)F)ccc32)CC1,"inconclusive [inhibitor, single point]",–

Compound,Potency,"activity change, negative = growth inhibition"
CCOC(=O)c1[nH]c2ccc(OCC)cc2c1CCCN1C(=O)c2ccccc2C1=O,–,inconclusive: -33.9% [inhibitor]
CNC[C@H](Cc1ccccc1)NC[C@@H](Cc1cccc2ccccc12)NCCc1ccc(C)cc1,active: 18.4 µM,–
C=CCOc1ccc(Br)cc1CNC(C)(C)CO,inactive,–
O=C(CN1C(=O)NC2(CCCC2)C1=O)NNC(=O)c1ccc(Br)cc1,inactive,–
CC(=O)N1CCc2c(sc3c2c(=O)n(Cc2ccccc2)c(=O)n3Cc2cccc(Cl)c2)C1,"inconclusive [inhibitor, single point]",–
NC(=O)COC(=O)c1ccc2c(c1)S(=O)(=O)N=C1CCCCCN12,inactive,–
COc1ccc(CNc2nc3c(c(=O)n(Cc4ccc(F)cc4)c(=O)n3C)n2C)cc1,"inconclusive [inhibitor, partial curve]",–
CCOC(=O)c1c(C)nc2c(c1-c1ccc(OC)cc1)C(=O)CC(C)(C)C2,"inconclusive [inhibitor, single point]",–
COc1ccc(-c2cn3nc(N4CCC(C(=O)NCc5cccc(Cl)c5)CC4)sc3n2)cc1,"inconclusive [inhibitor, single point]",–
Cn1c(=O)c([N+](=O)[O-])c(N2CCN(Cc3ccc4c(c3)OCO4)CC2)c2ccccc21,active: 13 µM,–
O=C1C2C3C=CC(C3)C2C(=O)N1CCN1CCN(S(=O)(=O)c2ccc3ccccc3c2)CC1 (configuration not stated),"inconclusive [inhibitor, single point]",–
O=C(CN1CCN(c2ccc(O)cc2)CC1)Nc1ccccc1C(=O)NCCc1ccccc1,"inconclusive [inhibitor, full curve, poor fit]",–
O=C(CSc1ccc2nnc(-c3ccc(F)cc3)n2n1)N1CCOCC1,inactive,–
CC(C)=CCC[C@](C)(O[C@@H]1O[C@H](CO[C@@H]2OC[C@@H](O)[C@H](O)[C@H]2O)[C@@H](O)[C@H](O)[C@H]1O)C1CC[C@]2(C)C1[C@H](O)CC1[C@@]3(C)CC[C@H](O[C@@H]4O[C@H](CO)[C@@H](O)[C@H](O)[C@H]4O)C(C)(C)C3CC[C@]12C (some centres not stated),–,inconclusive: -31.3% [inhibitor]
COc1ccc(-c2csc(NC(=O)c3cc(C)oc3C)n2)cc1OC,"inconclusive [inhibitor, single point]",–
O=C(Cc1nnc(NC(=O)Nc2ccccc2F)s1)NCc1ccccc1,inactive,–
N#Cc1cccc(NC(=O)N2CCC3(CC2)CCN(C(=O)c2csnn2)CC3)c1,inactive,–
CCC1=C(OC(=O)N(CC)CC)N2C(=O)OC(=NCCOC)[C@]2(Cc2ccccc2)[C@H]2C1=CC[C@H]1C(=O)NC(=O)[C@H]12,–,inconclusive: -35.9% [inhibitor]
CC(C)(C)NC(=O)C1c2ccccc2OCC(=O)N1CCCN1CCOCC1 (configuration not stated),inactive,–
CCS(=O)(=O)N1CCN(Cc2nc3ccccc3c(=O)[nH]2)CC1,–,inconclusive: -30.3% [inhibitor]
COc1cccc(NC(=O)CN(C)C(=O)c2cc(-c3ccco3)nc3ccccc23)c1,"inconclusive [inhibitor, partial curve]",–
CCOc1ccccc1CNC(=O)C1CCN(C(=O)N2CCOc3ccc(Cl)cc32)CC1,"inconclusive [inhibitor, single point]",–
O=C(Nc1ccc(NC(=O)C2CC2)nc1)c1ccccn1,"inconclusive [inhibitor, single point]",–

Compound,Potency,"activity change, negative = growth inhibition"
Cc1[nH]c2ccccc2c1/C=C/c1ccc2ccccc2n1,"inconclusive [inhibitor, full curve, poor fit]",–
O=C(NC1CC1)C1=C[C@@H](c2ccc(C(F)(F)F)cc2)C[C@@H](OCCCCO)O1,"inconclusive [inhibitor, single point]",–
Cc1sc(NC(=O)c2ccccc2)c(C(=O)c2ccccc2)c1C,"inconclusive [inhibitor, single point]",–
O=C(NCc1ccccn1)C(=O)NCc1ccccn1,inactive,–
COc1cc(CN2C(=O)CC[C@@H]3CN(Cc4ccccn4)CC[C@@H]32)cc(OC)c1OC,inactive,–
COc1cc(-c2nc(CN3CCCCC3CCNC(C)=O)c(C)o2)ccc1F (configuration not stated),inactive,–
CN(C)S(=O)(=O)c1ccc(C(=O)Nc2ccc3nc(N4CCOCC4)sc3c2)cc1,"inconclusive [inhibitor, full curve, poor fit]",–
O=C(N[C@@H]1CCC(=O)N(CC[C@H](Oc2ccccc2)c2ccccc2)CC1)OCc1ccccc1,active: 14.6 µM,–
CCOc1ccc2[nH]c3c(NCC(C)C)ncnc3c2c1,"inconclusive [inhibitor, single point]",–
Cc1ccc(OCCn2cnc3cc([N+](=O)[O-])ccc3c2=O)cc1,"inconclusive [inhibitor, partial curve]",–
CCOc1ccc(OCC(O)CN2CCc3ccccc3C2)cc1 (configuration not stated),inactive,–
O=C(Nc1ccc(F)c(Cl)c1)c1cc(C2CCCCN2C(=O)c2cccs2)on1 (configuration not stated),active: 16.4 µM,–
CCOC(=O)[C@H]1[C@H]2COc3ccccc3[C@@H]2N2C(=O)c3ccc(Cl)cc3NC(=O)[C@@]12C,"inconclusive [inhibitor, single point]",–
CCOc1cc(C(=O)N2CCC(CC3CC(c4ccc(Cl)cc4)=NO3)(C(=O)NCC3CCCCC3)CC2)cc(OCC)c1OCC (configuration not stated),active: 23.1 µM,–
CC1Cc2ccccc2N1C(=O)CN1C(=O)NC(C)(c2ccc3c(c2)OCCO3)C1=O (configuration not stated),"inconclusive [inhibitor, single point]",–
Cc1ccnc(NS(=O)(=O)c2ccc(Oc3ccccc3)cc2)c1,"inconclusive [inhibitor, single point]",–
Cc1cccc(N2CCN(c3nc4ccc(C(=O)c5ccccc5)cc4n4cnnc34)CC2C)c1 (configuration not stated),active: 18.4 µM,–
CCC1CCC2(CC1)NC(=O)N(CC(=O)NCc1ccc(Cl)cc1)C2=O (configuration not stated),"inconclusive [inhibitor, partial curve]",–
NC(=O)C1(N2CCCCC2)CCN(C(=O)c2ccc(-n3cnnn3)cc2)CC1,"inconclusive [inhibitor, single point]",–
CCCCN(CC)CCNC(=O)c1cc2c(=O)[nH]c3ccc(C)cc3c2s1,"inconclusive [inhibitor, single point]",–
CCOC(=O)C(C)(C)N(Cc1cccc(C)c1)S(=O)(=O)c1cccc([N+](=O)[O-])c1,"inconclusive [inhibitor, single point]",–
